This note sets out measurements from PMC7819943, “Rice protein-binding microarrays: a tool to detect cis-acting elements near promoter regions in rice”.

The other results are listed elsewhere or left out.

The target of the assay is T1, OsWOX13 (Oryza sativa, UniProt Q5QMM3 1-267).
T1 sequence: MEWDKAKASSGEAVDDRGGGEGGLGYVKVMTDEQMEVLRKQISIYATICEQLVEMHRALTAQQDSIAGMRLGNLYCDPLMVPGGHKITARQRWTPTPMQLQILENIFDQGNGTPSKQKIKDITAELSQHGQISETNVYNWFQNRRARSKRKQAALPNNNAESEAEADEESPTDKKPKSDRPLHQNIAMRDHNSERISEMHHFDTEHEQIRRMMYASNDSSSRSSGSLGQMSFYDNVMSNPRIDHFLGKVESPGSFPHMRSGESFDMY
Kind of assay: protein-binding microarray (RPBM); PBS, 2% BSA, 51.3 ng/ul salmon testes DNA, 50 uM zinc acetate, 200 nM TF, 25 C, 1 h; high values mean tight binding. Conditions: protein: recombinant; tags: N-terminal polyhistidine and DsRed monomer fusion (pET32a); label: CyDye5-dUTP incorporated in the synthesized complementary strand; 3' TTTTT single-stranded linker to array surface; dsDNA, one strand shown. In short, it runs like this: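 For the binding signal, per-feature fluorescence intensity was read in arbitrary units on an Axon 4000B scanner. Before scanning, a 2% BSA-blocked custom Agilent array made double-stranded with Cy5-dUTP was washed after 1 h at 25 °C with 200 nM protein and 50 µM zinc acetate. The proteins were Ni–NTA-purified transcription factors with N-terminal polyhistidine and DsRed fusions, expressed in E. coli BL21-CodonPlus.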
In the case of “CCTAATTGACAAATGATTTCACCACGTCCCTTTCCATTTTCGGAGTCACCTAGTGCAG”, the binding signal is 34200 fluorescence intensity (a.u.).
On to “GGTGCCGGTGATAGCGATAATTGACTAATTTTCTGGTTACCGGAGTCACCTAGTGCAG”, for which the binding signal was 32300 fluorescence intensity (a.u.).
As for “TTCTCCAATCAATCCAATCCAATCCTCGTGTAGGCCACCACGGAGTCACCTAGTGCAG”, the figure is 40800 fluorescence intensity (a.u.); as for “TCTTAATCAATCACAATATCTCTCTATTTAATTCTACCTACGGAGTCACCTAGTGCAG”, 21300 fluorescence intensity (a.u.); as for “CTGGATTGCTTTATCTCCCAGTGACTAACCATTCCAAATTCGGAGTCACCTAGTGCAG”, 7210 fluorescence intensity (a.u.).
As for “AAAATAAAGATTGAGTGTCACAAAACTACAGGTTTGGTATCGGAGTCACCTAGTGCAG”, the binding signal is 6490 fluorescence intensity (a.u.).
With “GTATTAAACATACATTAATTACAAAATCCATTTCAGAAGCCGGAGTCACCTAGTGCAG”, the binding signal is 21200 fluorescence intensity (a.u.).
On to “AGTTTATGATAATTTAAATTTATATAGTATGTAGAATGGTCGGAGTCACCTAGTGCAG”, for which the binding signal was 14400 fluorescence intensity (a.u.).
As for “CATTGATTTGATGCGTCTGGTAGTGTGGTGGTGTTCTTGACGGAGTCACCTAGTGCAG”, the binding signal is 41700 fluorescence intensity (a.u.).
Consider “GATGATGTAAACCTGATCAGATTTGCTCGAGTTGGTTTGACGGAGTCACCTAGTGCAG”, for which the binding signal was 7280 fluorescence intensity (a.u.).
As for “CTAAGCTGTGATTTCTTTTCTTTATGTCACCACCTCCAAACGGAGTCACCTAGTGCAG”, the figure is 3460 fluorescence intensity (a.u.).
Regarding “ACACGGTTAATTAAAGCTCCACTGTCCGTATAGTGCATCACGGAGTCACCTAGTGCAG”, the binding signal was 7610 fluorescence intensity (a.u.).
As for “TCCAAAACATCAATAATTATGAAACCGGTGGGAGTACTCACGGAGTCACCTAGTGCAG”, the binding signal is 7200 fluorescence intensity (a.u.).
As for “ATTAATTAATTATTATAAATTTAGAAAATGCGTTCATTTGCGGAGTCACCTAGTGCAG”, the figure is 35900 fluorescence intensity (a.u.); as for “TATTATATGAATTGGCTATTAAATTAGTTATAAATGAATTCGGAGTCACCTAGTGCAG”, 3710 fluorescence intensity (a.u.); as for “GTGATTTTGTGAAAATTAAAATTGTTGTACTTCTAAATATCGGAGTCACCTAGTGCAG”, 3370 fluorescence intensity (a.u.).
The figure for “TCATCGGCAAGTGCTACCCTTCAATCTCCCCACTGTGGACCGGAGTCACCTAGTGCAG” is 7100 fluorescence intensity (a.u.).
As for “CTCATGACTGACAGTTATGAGAGGCAAAACGAATAACAGTCGGAGTCACCTAGTGCAG”, the figure is 17100 fluorescence intensity (a.u.); as for “TTACAAATTATTAAAACGGTGAAATTATATTATAAAGGTCCGGAGTCACCTAGTGCAG”, 6370 fluorescence intensity (a.u.); as for “TGTAACTTAGCACAATTATACTATGTTAAGCTGATTAACCCGGAGTCACCTAGTGCAG”, 3490 fluorescence intensity (a.u.).
Take “ATTTAATTTTCCTTTTACAGTAAATACCATCACTACCTTTCGGAGTCACCTAGTGCAG”: the binding signal is 13900 fluorescence intensity (a.u.).
The figure for “TCTTCACATGAATGATGAAATTGCTAGTAGCATGTCTTCACGGAGTCACCTAGTGCAG” is 3410 fluorescence intensity (a.u.); for “TATTGATGGGCTGCTCATTCTAGTTGGGTCCGACCGGCGTCGGAGTCACCTAGTGCAG” it is 9430 fluorescence intensity (a.u.).
The figure for “TGCTAATGATAGATTAATTAGACTTAATAAATTTATCTCGCGGAGTCACCTAGTGCAG” is 28900 fluorescence intensity (a.u.); for “GCTGACATATATATGTAAAATAAGTCTATTTTACATCCCTCGGAGTCACCTAGTGCAG” it is 4370 fluorescence intensity (a.u.).
As for “GTGGATTGGATAATTGGACATGGAGACAAAACCCAAACACCGGAGTCACCTAGTGCAG”, the figure is 24500 fluorescence intensity (a.u.); as for “ACTAAAATGATGACAACAAATCTACGCAGCTGCCTGCTTTCGGAGTCACCTAGTGCAG”, 4880 fluorescence intensity (a.u.); as for “ATGTAGACTGGAAAAGATTTGAAGGGAGCAAAACATTCGGCGGAGTCACCTAGTGCAG”, 10900 fluorescence intensity (a.u.).
For “AGTGGATTACTAGATTATAGTAATCTGGCTTATAGATTGTCGGAGTCACCTAGTGCAG”, the binding signal was 4140 fluorescence intensity (a.u.).
As for “TCCGATGATTAATAATCAGCTGTAATCAAAGCTGTTAGCACGGAGTCACCTAGTGCAG”, the figure is 49200 fluorescence intensity (a.u.); as for “GTCCGTCGTCTAAGTCAAATAATTGATGCCATAAAGCGGACGGAGTCACCTAGTGCAG”, 11800 fluorescence intensity (a.u.).
The figure for “TTACGTATGCATGACTAATTGACATATCCATTATATTGGTCGGAGTCACCTAGTGCAG” is 20300 fluorescence intensity (a.u.).
For “TTAAGCTGCATAATTGACACAAAATAGATAAGTATTGTAGCGGAGTCACCTAGTGCAG”, the binding signal is 20600 fluorescence intensity (a.u.).
For the sequence “GAAATAGACACCGAAATTGCCCCAAAACTCTCCCACAAATCGGAGTCACCTAGTGCAG”, the binding signal was 6420 fluorescence intensity (a.u.).
As for “AAAATAAATTACAGATATAAAATTTATATTTGTGTTATTCCGGAGTCACCTAGTGCAG”, the figure is 12300 fluorescence intensity (a.u.); as for “CCAGCACGAAATTAATTTTCACCAACGGAGGCTGACACGACGGAGTCACCTAGTGCAG”, 6150 fluorescence intensity (a.u.); as for “CGACGGGACACCTTGATTGATGAGGATTAATATCAGAATGCGGAGTCACCTAGTGCAG”, 31100 fluorescence intensity (a.u.).
As for “TTATTTGTGGCTTGAAGATTGACAGCTTTTGTTGATTGCTCGGAGTCACCTAGTGCAG”, the figure is 9340 fluorescence intensity (a.u.).
As for “GGAAGCACTGATTTGAACATTTCATATACGCATTGTTTCGCGGAGTCACCTAGTGCAG”, the figure is 3830 fluorescence intensity (a.u.).
In the case of “TTTCTGTTTATATTTCAATTTATTGGTAGTAACAAACCTTCGGAGTCACCTAGTGCAG”, the binding signal is 9670 fluorescence intensity (a.u.).
Regarding “GTAATGATGATTAATATTCCCTATCATCTAGTCCATGCTTCGGAGTCACCTAGTGCAG”, the binding signal is 31400 fluorescence intensity (a.u.).
The figure for “TGTTAAAATTTTGACATTACCAAATTTTAATAAGGTTTATCGGAGTCACCTAGTGCAG” is 3950 fluorescence intensity (a.u.).
